# Test results reported in the supplement of paper PMC8728848.
# Some of the results follow.
# Tests used:
# Experiment in all cases: glycan array binding signal (z-score within array); higher = stronger binding
# Conditions in all cases: glycan notation: IUPAC condensed, linker removed
# [1] = biological target: Neu5Ac(a2-6)GlcNAc(b1-4)GlcNAc(b1-4)GlcNAc
# Method in brief: (§1)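 Columns mapping to the same glycan were averaged after glycan names were converted to IUPAC-condensed notation. The data come from 3228 arrays in the Consortium for Functional Glycomics database, limited to those with an available protein sequence. Binding is reported as a within-array Z-score averaged across arrays of one protein sequence and across linkers.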
# [2] = biological target: Neu5Ac(a2-8)Neu5Ac
# Method in brief: as §1
# [3] = biological target: Neu5Ac(a2-8)Neu5Ac(a2-3)Gal(b1-3)GalNAc(b1-4)[Neu5Ac(a2-3)]Gal(b1-4)Glc
# Method in brief: as §1
# [4] = biological target: Neu5Ac(a2-8)Neu5Ac(a2-3)Gal(b1-3)GalNAc(b1-4)[Neu5Ac(a2-8)Neu5Ac(a2-3)]Gal(b1-4)Glc
# Method in brief: as §1
# [5] = biological target: Neu5Ac(a2-8)Neu5Ac(a2-3)Gal(b1-4)Glc
# Method in brief: as §1
# [6] = biological target: Neu5Ac(a2-8)Neu5Ac(a2-3)Gal(b1-4)GlcNAc
# Method in brief: as §1
# [7] = biological target: Neu5Ac(a2-8)Neu5Ac(a2-3)[Gal(b1-3)GalNAc(b1-4)]Gal(b1-4)Glc
# Method in brief: as §1
# [8] = biological target: Neu5Ac(a2-8)Neu5Ac(a2-3)[GalNAc(b1-4)]Gal(b1-4)Glc
# Method in brief: as §1
# [9] = biological target: Neu5Ac(a2-8)Neu5Ac(a2-8)Neu5Ac
# Method in brief: as §1
# [10] = biological target: Neu5Ac(a2-8)Neu5Ac(a2-8)Neu5Ac(a2-3)Gal(b1-4)Glc
# Method in brief: as §1
# [11] = biological target: Neu5Ac(a2-8)Neu5Ac(a2-8)Neu5Ac(a2-3)[Gal(b1-3)GalNAc(b1-4)]Gal(b1-4)Glc
# Method in brief: as §1
# [12] = biological target: Neu5Ac(a2-8)Neu5Ac(a2-8)Neu5Ac(a2-3)[GalNAc(b1-4)]Gal(b1-4)Glc
# Method in brief: as §1
# [13] = biological target: Neu5Ac(a2-8)Neu5Ac(a2-8)Neu5Ac(a2-8)Neu5Ac(a2-3)[GalNAc(b1-4)]Gal(b1-4)Glc
# Method in brief: as §1
# [14] = biological target: Neu5Ac(a2-8)Neu5Gc(a2-3)Gal(b1-4)GlcNAc
# Method in brief: as §1
# [15] = biological target: Neu5Ac(b2-6)Gal(b1-4)GlcNAc
# Method in brief: as §1
# [16] = biological target: Neu5Ac(b2-6)GalNAc
# Method in brief: as §1
# [17] = biological target: Neu5Ac9Ac(a2-3)Gal(b1-3)GlcNAc
# Method in brief: as §1
# [18] = biological target: Neu5Ac9Ac(a2-3)Gal(b1-4)GlcNAc
# Method in brief: as §1
# [19] = biological target: Neu5Ac9Ac(a2-6)Gal(b1-4)GlcNAc
# Method in brief: as §1
# [20] = biological target: Neu5Gc(a2-3)Gal(b1-3)GlcNAc
# Method in brief: as §1
# [21] = biological target: Neu5Gc(a2-3)Gal(b1-3)[Fuc(a1-4)]GlcNAc
# Method in brief: as §1
# [22] = biological target: Neu5Gc(a2-3)Gal(b1-4)Glc
# Method in brief: as §1
# [23] = biological target: Neu5Gc(a2-3)Gal(b1-4)GlcNAc
# Method in brief: as §1
# [24] = biological target: Neu5Gc(a2-3)Gal(b1-4)GlcNAc(b1-3)Gal(b1-4)GlcNAc(b1-2)Man(a1-3)[Neu5Gc(a2-3)Gal(b1-4)GlcNAc(b1-3)Gal(b1-4)GlcNAc(b1-2)Man(a1-6)]Man(b1-4)GlcNAc(b1-4)GlcNAc
# Method in brief: as §1
# [25] = biological target: Neu5Gc(a2-3)Gal(b1-4)[Fuc(a1-3)]GlcNAc
# Method in brief: as §1
# [26] = biological target: Neu5Gc(a2-6)Gal(b1-4)GlcNAc
# Method in brief: as §1
# [27] = biological target: Neu5Gc(a2-6)GalNAc
# Method in brief: as §1
# [28] = biological target: Neu5Gc(a2-8)Neu5Ac(a2-3)Gal(b1-4)GlcNAc
# Method in brief: as §1
# [29] = biological target: Neu5Gc(a2-8)Neu5Gc(a2-3)Gal(b1-4)GlcNAc
# Method in brief: as §1
# [30] = biological target: Neu5Gc(a2-8)Neu5Gc(a2-3)Gal(b1-4)GlcNAc(b1-3)Gal(b1-4)GlcNAc
# Method in brief: as §1
# [31] = biological target: Neu5Gc(a2-8)Neu5Gc(a2-6)Gal(b1-4)GlcNAc
# Method in brief: as §1
# [32] = biological target: Neu5Gc(b2-6)Gal(b1-4)GlcNAc
# Method in brief: as §1
binder,measurement,setting,value
DC-ASGPR Long (Homo sapiens) (protein) MTRTYENFQYLENKVKVQGFKNGPLPLQSLLQRLRSGPCHLLLSLGLGLLLLVIICVVGFQNSKFQRDLVTLRTDFSNFTSNTVAEIQALTSQGSSLEETIASLKAEVEGFKQERQAGVSELQEHTTQKAHLGHCPHCPSVCVPVHSEMLLRVQQLVQDLKKLTCQVATLNNNASTEGTCCPVNWVEHQDSCYWFSHSGMSWAEAEKYCQLKNAHLVVINSREEQNFVQKYLGSAYTWMGLSDPEGAWKWVDGTDYATGFQNWKPGQPDDWQGHGLGGGEDCAHFHPDGGWNDDVCQRPYHWVCEAGLGQTSQESH,glycan array binding signal (z-score),[1],-0.466
same,glycan array binding signal (z-score),[2],-0.533
same,glycan array binding signal (z-score),[3],-0.374
same,glycan array binding signal (z-score),[4],-0.349
same,glycan array binding signal (z-score),[5],-0.297
same,glycan array binding signal (z-score),[6],-0.339
same,glycan array binding signal (z-score),[7],-0.074
same,glycan array binding signal (z-score),[8],1.28
same,glycan array binding signal (z-score),[9],-0.221
same,glycan array binding signal (z-score),[10],-0.459
same,glycan array binding signal (z-score),[11],-0.41
same,glycan array binding signal (z-score),[12],0.83
same,glycan array binding signal (z-score),[13],0.893
same,glycan array binding signal (z-score),[14],-0.127
same,glycan array binding signal (z-score),[15],-0.03
same,glycan array binding signal (z-score),[16],-0.414
same,glycan array binding signal (z-score),[17],-0.292
same,glycan array binding signal (z-score),[18],-0.012
same,glycan array binding signal (z-score),[19],-0.439
same,glycan array binding signal (z-score),[20],-0.306
same,glycan array binding signal (z-score),[21],-0.334
same,glycan array binding signal (z-score),[22],-0.31
same,glycan array binding signal (z-score),[23],-0.161
same,glycan array binding signal (z-score),[24],0.188
same,glycan array binding signal (z-score),[25],-0.133
same,glycan array binding signal (z-score),[26],-0.344
same,glycan array binding signal (z-score),[27],0.977
same,glycan array binding signal (z-score),[28],-0.253
same,glycan array binding signal (z-score),[29],-0.05
same,glycan array binding signal (z-score),[30],0.424
same,glycan array binding signal (z-score),[31],-0.645
same,glycan array binding signal (z-score),[32],-0.507
